Test results as given in PubChem BioAssay AID1030 (National Center for Advancing Translational Sciences (NCATS), 2008).
Hit rate of the full screen: of about 220,000 compounds, about 16,000 (7.3%) were called active. This list was built around the results that the source calls inconclusive (neither active nor inactive); the mix of calls is not that of the screen. Calls come from the whole dose curve; as a rule, active = well fitted inhibition curve with a large enough effect (not every such curve was filed as active); inconclusive = small, poorly fitted or top-dose-only effect, or another doubt; inactive = no such curve, though single readings can be large or run the other way. Potencies beside an inconclusive call are fits to weak or partial responses and may not hold up.

target: Aldehyde dehydrogenase 1A1 (Homo sapiens) (UniProt P00352); assay: qHTS Assay for Inhibitors of Aldehyde Dehydrogenase 1 (ALDH1A1); conditions: Purified ALDH1A1, NADH fluorescence, propionaldehyde substrate; series mostly up to 75.3 µM
Potency is the fitted concentration of half-maximal effect; tags give direction and shape of the fitted curve.

Sequence of UniProt P00352 (P00352 whole entry, looked up): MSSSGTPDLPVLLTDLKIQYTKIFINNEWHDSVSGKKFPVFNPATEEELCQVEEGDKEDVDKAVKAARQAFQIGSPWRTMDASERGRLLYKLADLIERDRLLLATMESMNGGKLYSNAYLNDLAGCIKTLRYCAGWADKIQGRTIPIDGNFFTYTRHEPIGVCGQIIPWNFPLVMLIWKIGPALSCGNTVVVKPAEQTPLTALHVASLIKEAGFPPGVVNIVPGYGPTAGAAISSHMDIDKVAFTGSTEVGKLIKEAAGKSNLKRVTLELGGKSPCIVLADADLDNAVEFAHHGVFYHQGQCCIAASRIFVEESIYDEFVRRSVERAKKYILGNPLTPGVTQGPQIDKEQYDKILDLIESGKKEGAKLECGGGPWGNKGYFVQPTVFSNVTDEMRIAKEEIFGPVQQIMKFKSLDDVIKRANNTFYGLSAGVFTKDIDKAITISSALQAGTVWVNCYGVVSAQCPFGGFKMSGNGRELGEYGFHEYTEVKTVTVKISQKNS

Potency, active:
Cc1cccc(NC2SC(=O)N(c3ccccc3)C2=O)c1 (stereo not drawn) 1.26 µM
COCCn1c(SCC(=O)N2CCCc3ccccc32)nc2cccnc21 3.16 µM
C/C(=N\NC(=O)c1ccc(CN2CCOCC2)cc1)c1cccc([N+](=O)[O-])c1 18.9 µM
CC1CCN(C(=S)c2ccc(-c3ccc(Cl)cc3Cl)o2)CC1 28.2 µM

Potency, inactive:
Cc1ccc(Cn2nnc3c(=O)n(CC(=O)NCc4ccccc4)cnc32)cc1
O=C(NCCc1cn2ccsc2n1)C1CCCCC1
O=C(CSc1nc(C2CC2)nc2ccccc12)N1CCc2ccccc2C1
CCCCNC(=O)C1=C(N)C(C(=O)Nc2ccc(C)c(S(=O)(=O)N3CCCCC3)c2)SC1=Nc1ccc(C)cc1C (stereo not drawn)
Cc1sc(NC(=O)C(C)C)c(C(=O)Nc2ccccc2)c1C
CCN(CC)C(=O)CN1CCN(c2ncccn2)CC1
CC(C)CNC(=O)Cn1c(=O)c2c(ncn2CC(C)C)n(Cc2ccccc2)c1=O
Cc1ccccc1OCc1nnc(SCC(=O)Nc2ccc3c(c2)OCO3)n1C
O=C(COC(=O)C1CC1)NC(=O)NCc1ccccc1
CCCCSc1nc2c(c(=O)[nH]1)CCC2
c1ccc(CNc2ncnc3c2oc2ccccc23)nc1
Oc1ccc(NC(=S)Nc2ccccc2)cc1
CCOC(=O)CNC(=O)c1cc(-c2ccccn2)nc2c(C)c(Cl)ccc12
CC(C)(C)C(=O)Oc1cc(N)n(S(=O)(=O)c2ccc(F)cc2)n1
CN(Cc1cccs1)C(=O)Cn1cnc2cc([N+](=O)[O-])ccc2c1=O
COc1ccc(-c2ccc(=O)n(CC(=O)Nc3ccc(C(=O)NC4CC4)cc3)n2)cc1OC

Potency, inconclusive:
COC(=O)c1nc(-c2ccc(C)cc2)oc1N(C)C 25.1 µM [inhibitor, partial curve]
O=C(NCc1csc(-c2cccs2)n1)Nc1ccc(F)cc1F 37.7 µM [inhibitor, single point]
O=C(Nc1cccnc1Oc1ccc(Cl)cc1)c1cccc2ccccc12 28.2 µM [inhibitor, single point]
COc1ccc2[nH]c(=O)c(CN(Cc3cccs3)Cc3nnnn3C(C)(C)C)cc2c1 25.1 µM [inhibitor, partial curve]
O=C1NC2(CCCCCC2)C(=O)N1Cc1ccc([N+](=O)[O-])cc1 39.8 µM [inhibitor, single point]
CCc1c(C)nc2cc(-c3ccc(OC)c(OC)c3)nn2c1NCC1CC1 28.2 µM [inhibitor, partial curve]
CNS(=O)(=O)c1ccc(NS(=O)(=O)c2ccccc2F)cc1 39.8 µM [inhibitor, single point]
CN1CCN(CC(=O)Nc2ccc(OCc3ccccc3)cc2)CC1 39.8 µM [inhibitor, single point]
COc1ccc(/C=N/OCC(=O)NCc2cccs2)c(OC)c1 39.8 µM [inhibitor, single point]
CCCn1c(SCC(=O)N2CCCc3ccccc32)nnc1-c1ccco1 35.5 µM [inhibitor, single point]
O=C(CNc1ccccc1)N/N=C/c1ccc([N+](=O)[O-])o1 20 µM [inhibitor, partial curve]
Cc1ccc(C)c(CSc2nnc(-c3cccnc3)n2N)c1 28.2 µM [inhibitor, single point]
CCOC(=O)Nc1ccc(S(=O)(=O)Nn2cnnc2)cc1 39.8 µM [inhibitor, single point]
C#CCn1c(=NC(=O)c2cc(Cl)sc2Cl)sc2cc(S(N)(=O)=O)ccc21 31.6 µM [inhibitor, partial curve]
COc1ccc(NS(=O)(=O)c2cc(NC(=O)/C=C/c3cc(OC)ccc3OC)ccc2N2CCCCC2)cc1 39.8 µM [inhibitor, single point]
Cc1onc(-c2ccccc2)c1C(=O)Nc1nnc(N(C)Cc2ccccc2)s1 31.6 µM [inhibitor, single point]
CC(=O)c1cc(NC(=O)c2ccc(Cl)cc2)c(=O)oc1/C=C/N(C)C 31.6 µM [inhibitor, single point]
COC(=O)C1CCN(C(=O)c2ccccc2Oc2ccccc2)CC1 11.2 µM [inhibitor, partial curve]
CCOC(=O)C1=C(C)NC(=O)NC1c1ccccc1OCc1c(F)cccc1Cl (stereo not drawn) 28.2 µM [inhibitor, single point]
Cn1cccc1C(=O)N1CCC2(CC1)CCN(c1cccc(-c3ccccc3)c1)CC2 39.8 µM [inhibitor, single point]
COc1cccc(C2c3c(oc4ccccc4c3=O)C(=O)N2CCCN2CCOCC2)c1 (stereo not drawn) 39.8 µM [inhibitor, single point]
O=[N+]([O-])c1ccccc1/C=C\C=N\N1CCN(c2ccccc2)CC1 22.4 µM [inhibitor, single point]
COc1ccc(OCCn2cc(/C(N)=N/O)c3ccccc32)cc1 39.8 µM [inhibitor, single point]
O=C(CSc1nc(-c2ccccc2Cl)ns1)Nc1ccc2c(c1)OCO2 7.08 µM [inhibitor, single point]
CCc1nc(N)c(C#N)c(-c2cccnc2)c1C 39.8 µM [inhibitor, single point]
CN(C)c1oc(-c2ccco2)nc1C#N 28.2 µM [inhibitor, partial curve]
CCCCCn1c(SCCc2ccccc2)nc2c1c(=O)[nH]c(=O)n2C 7.08 µM [inhibitor, full curve, poor fit]
O=S(=O)(Nc1c(S(=O)(=O)c2ccccc2)c2nc3ccccc3nc2n1C1CCCCC1)c1ccccc1 28.2 µM [inhibitor, partial curve]
